Experimental findings from ChEMBL document CHEMBL1157539, “Thousands of chemical starting points for antimalarial lead identification” (Nature, 2010) are described below.

The structures appear in SMILES notation. “And” between values parts separate entries of the source, which are not always exact repeats. Identical values can stand only once. Over roughly 13,000 compounds, “IFI” has its median near 4; the highest 2% begin near 17. This is one part of the list.

This assay in a line: GSK_TCMDC: Inhibition Frequency Index (IFI). The number of non-kinase HTS assays where a compound showed > 50 % inhibition, expressed as a percentage of the number of such assays in which the compound was tested (-0 is zero). It counts as functional.
The compound `C=Cc1cc(OC)c2c(c1)c(=O)oc1c2cc(OC)c2c(O)ccc([C@H]3O[C@H]([C@H](C)O)[C@H](O)[C@H]3O)c21` showed an IFI of 10.7%.
`COC(=O)c1ccc(CC(C)NCC(O)c2cccc3ccccc23)cc1` (stereo not given) displayed an IFI of 1.47%.
Next, `COc1ccc(C[C@H]2NC[C@H](O)[C@H]2OC(C)=O)cc1`: 8.51%; `Cc1ccc(CC(C)NCC(O)c2cccc([N+](=O)[O-])c2)cc1` (stereo not given): 2.96%; `COCCNCc1cccc(-c2ccc(CN(C(=O)NC3CCCCC3)C3CCN(Cc4ccccc4)CC3)cc2)c1`: 6.87%.
Regarding `COC(=O)/C=C/c1ccc(CC(C)NCC(O)c2cccc(C(F)(F)F)c2)cc1` (stereo not given), the IFI is 5.07% and 6.72%.
For the compound `O=C(NC1CCC(CN2CCC(c3c[nH]c4ccccc34)CC2)CC1)c1ccc(-c2ccccc2[N+](=O)[O-])o1` (stereo not given), the IFI was 5.3%.
Turning to `CCOC(C(=O)OCC1CCCN1C)(c1ccccc1)c1ccccc1` (stereo not given), the IFI is 2.19%.
In the case of `c1ccc2c(NCCCCCCNc3c4c(nc5ccccc35)CCCC4)c3c(nc2c1)CCCC3`, the IFI worked out at 10.5%.
`CN(c1cc(NC(=O)c2cccs2)ccn1)C1CCN(Cc2ccccc2)CC1` yielded an IFI of 2.78%.
For the compound `CC[C@H]1CN2CCc3cc(OC)c(OC)cc3[C@@H]2C[C@@H]1C[C@H]1NCCc2cc(OC)c(OC)cc21`, the IFI came to 9.86%.
To `COc1ccc(CC(C)NCC(O)c2cccc(Br)c2)cc1` (stereo not given) belongs 5.07%; to `Cc1[nH]c2ccc([N+](=O)[O-])cc2c1C1=CCN(C)CC1`, 2.03%.
In the case of `CCC1CN2CCc3cc(OC)c(OC)cc3C2CC1CC1NCCc2c1[nH]c1ccc(O)cc21` (stereo not given), the IFI is 11.1%.
On to `CC[C@@]1(O)C(=O)OCc2c1cc1n(c2=O)Cc2c-1nc1cc3c(cc1c2CN1CCOCC1)OCO3`, for which the IFI came out at 6.43%.
With `O=C(Nc1ccccc1OC(F)(F)F)NC1CCC(CN2CCC(c3c[nH]c4ccccc34)CC2)CC1` (stereo not given), the IFI is 3.62% and 3.52%.
`C/C=C1\CN2CC[C@H]1C[C@@H]2[C@@H](O)c1ccnc2ccc(O)cc12` had an IFI of -0%.
`Cc1cc(C)c(CC(C)NCC(O)c2cccc(C(F)(F)F)c2)c(C)c1` (stereo not given): the IFI amounted to 9.85%.
As for `Cc1nc(N)nc(N)c1-c1cccc(Cl)c1`, the IFI is 2.24%.
The compound `COC(=O)c1ccc(CC(C)NCC(O)c2cccc(C(F)(F)F)c2)cc1F` (stereo not given) registered an IFI of 3.62%.
The compound `Oc1ccccc1CNCC(O)c1cccc(C(F)(F)F)c1` (stereo not given) had an IFI of 4.24%.
Take `OC(CNC1CCCCCC1)c1ccc(Cl)c(Cl)c1` (stereo not given): the IFI came to 2.24%.
Compound `O=C(NC1CCC(CN2CCC(c3c[nH]c4ccccc34)CC2)CC1)c1cn(Cc2ccccc2)c2ccccc12` (stereo not given) gave an IFI of 5.97%.
`CN(C)c1cccc(NC(=O)NC2N=C(c3ccccc3)c3ccccc3N(CC(=O)N(C)c3ccccc3)C2=O)c1` (stereo not given): the IFI was determined as 2.88%.
Next, `COc1cc(C=CC(=O)NC2CCC(CN3CCC(c4c[nH]c5ccccc45)CC3)CC2)cc(OC)c1` (stereo not given): 5.76%.
Compound `CCCCCCc1cc(O)c2c3c(c(=O)oc2c1)CCN(C)C3` returned an IFI of 2.26%.
The compound `CC(Cc1ccc(OCCCCOc2ccccc2)cc1)NCCCn1ccnc1` (stereo not given) gave an IFI of 32.6%.
To `Cc1cc(NC(=O)[C@H](CC(C)C)Nc2ccc(C#N)c3ccccc23)ccc1F` belongs 7.48%; to `CN(c1cc(NC(=O)c2ccc(F)cc2)ccn1)C1CCN(Cc2cccc(O)c2)CC1`, 4.76%.
Compound `O=C(Nc1ccc(Oc2ccccc2)cc1)N1CCC(CN2CCC(c3c[nH]c4ccccc34)CC2)CC1` came in with an IFI of 6.47%.
In turn, `OC(CNCc1ccccc1OC(F)F)c1cccc(C(F)(F)F)c1` (stereo not given) yielded an IFI of 2.34%.
Next, `O=C(/C=C/c1ccc([N+](=O)[O-])cc1)NC1CCC(CN2CCC(c3c[nH]c4ccccc34)CC2)CC1` (stereo not given): 3.62% and 2.94%.
Next, `CC[C@H]1CN2CC[C@@H]1C[C@H]2[C@H](O)c1cc(N2CCC(O)CC2)nc2ccc(OC)cc12`: -0%.
The compound `CC(=O)Nc1ccc(CN2CCC(N(C)c3cc(NC(=O)c4ccc(F)cc4)ccn3)CC2)cc1` displayed an IFI of -0%.
`Cc1ccc(C)c(N2CCN(Cc3ccccc3O)CC2)c1` came in with an IFI of 0.72%.
In the case of `O=C(NC1CCC(CN2CCC(c3c[nH]c4ccccc34)CC2)CC1)c1cc(-c2ccccc2)c(C(F)(F)F)s1` (stereo not given), the IFI is 6.8%.
`Cc1c2ccncc2c(C)c2c1[nH]c1ccccc12` displayed an IFI of 7.3%.
To `CCOC(C(=O)OCC1CCCN1C(C)C)(c1ccccc1)c1ccccc1` (stereo not given) belongs -0%; to `Cc1csc(-c2ccc3[nH]cc(C4=CCN(C)CC4)c3c2)n1`, -0%; to `O=C(c1ccccc1)C1CC1CN1CC=C(c2c[nH]c3ccccc23)CC1` (stereo not given), 0.88%.
As to `CS(=O)(=O)Nc1ccc2[nH]cc(C3CCN(CC4CCN(C(=O)/C=C/c5ccc(Cl)c(Cl)c5)CC4)CC3)c2c1`, the IFI worked out at 2.19%.
In turn, `O=C(NC1CCC(CN2CCC(c3c[nH]c4ccccc34)CC2)CC1)c1cc2cccc([N+](=O)[O-])c2[nH]1` (stereo not given) had an IFI of 3.65%.
To `Cc1ccc2c(C3=CCN(CCCCC4(C)C(=O)Nc5ccccc54)CC3)c(C)[nH]c2c1` (stereo not given) belongs 2.19%; to `COc1cccc(C(=O)C2CC2CN2CC=C(c3c[nH]c4ccc(OC)nc34)CC2)c1` (stereo not given), 5.56%.
Compound `CC[C@H]1CN2CC[C@@H]1C[C@H]2[C@H](O)c1cc(-c2ccc(F)cc2)nc2ccc(O)cc12` displayed an IFI of 4.41%.
Take `O=C(/C=C/c1ccc(Cl)cc1)NC1CCC(CN2CCC(c3c[nH]c4ccccc34)CC2)CC1` (stereo not given): the IFI was 4.23% and 5.63%.
Take `COCCNCc1ccc(-c2ccc(CN(C(=O)NC3CCCCC3)C3CCN(Cc4ccccc4)CC3)cc2)cc1`: the IFI amounted to 7.52%.
As for `CCCC(=O)c1c(O)c2ccccc2oc1=O`, the IFI came to 0.72%.
Consider `CSc1ccc(C[C@@H](C)NC[C@H](O)c2cccc(Cl)c2)cc1`, for which the IFI was found to be 5.04%.
As for `COc1ccc(CN(C2CC2)C(C)C(=O)c2[nH]c(C)c(C(C)=O)c2C)cc1` (stereo not given), the IFI came to 12.5%.
In turn, `CC1CN=C(Nc2ncc(Cl)cc2Cl)N1` (stereo not given) came in with an IFI of 0.7%.
The compound `CCCCC/C=C/C(=O)NC1CCC(CN2CCC(c3c[nH]c4ccccc34)CC2)CC1` (stereo not given) registered an IFI of 3.52%.
As to `Cc1[nH]c2ccccc2c1C1=CCN(CCCCC2(C)C(=O)Nc3ccccc32)CC1` (stereo not given), the IFI came to 2.17%.
To `C=C[C@H]1CN2CC[C@H]1C[C@H]2[C@H](O)c1cc(/C=C/c2ccc(F)cc2)nc2ccc(OC)cc12` belongs 6.9%.
As for `Cc1[nH]c2ccc(O)cc2c1C1CCN(CC2CCC(NC(=O)/C=C/c3ccc(Cl)c(Cl)c3)CC2)CC1` (stereo not given), the IFI is 5.19%.
Next, `Cc1[nH]c2ccccc2c1C1=CCN(CCCCC2(C)C(=O)Nc3cccc(F)c32)CC1` (stereo not given): 3.68%.
To `C[C@@H](CC1CCCCC1)NCc1ccccc1O` belongs 3.39%.
On to `CC(=O)Nc1ccc2[nH]cc(C3CCN(CC4CCC(NC(=O)/C=C/c5ccc(Cl)c(Cl)c5)CC4)CC3)c2c1` (stereo not given), for which the IFI is 2.82% and 2.9%.
`CC[C@H]1CN2CC[C@H]1C[C@@H]2[C@@H](O)c1cc(Cl)nc2ccc(OC)cc12`: the IFI was 2.9%.
As for `CCCCCOc1ccc(CC(C)NCC(O)c2cccc(Cl)c2)cc1` (stereo not given), the IFI stood at 4.86%.
With `COc1ccc(CCNCc2ccc3nc(N)c(C)cc3c2)cc1`, the IFI stood at 2.96%.
In turn, `CC(C)(C)c1cc(/C=C/C(=O)NC2CCC(CN3CCC(c4c[nH]c5ccccc45)CC3)CC2)cc(C(C)(C)C)c1O` (stereo not given) yielded an IFI of 13.4%.
The compound `CC(Cc1ccc([N+](=O)[O-])cc1)NCC(O)c1cccc(C(F)(F)F)c1` (stereo not given) showed an IFI of 3.73%.
Regarding `COc1ccc(CN2CCN(CCOC(c3ccccc3)c3ccccc3)CC2)c(O)c1`, the IFI amounted to 4.23%.
As for `Cc1ccc(C)c(C=CC(=O)NC2CCC(CN3CCC(c4c[nH]c5ccccc45)CC3)CC2)c1` (stereo not given), the IFI was 5.22% and 6.62%.
As for `CCCCOC(C(=O)OCC1CCCN1C)(c1ccccc1)c1ccccc1` (stereo not given), the IFI was determined as 0.73%.
In turn, `Oc1cccc(C2CCCN(CCc3c[nH]c4ccccc34)C2)c1` (stereo not given) registered an IFI of 3.6%.
The compound `CC[C@H]1CN2CC[C@@H]1C[C@H]2[C@H](O)c1cc[n+]([O-])c2ccc(OC)cc12` yielded an IFI of -0%.
To `CC[C@H]1CN2CC[C@@H]1C[C@H]2[C@H](O)c1cc(N2CCC(O)(c3ccc(Cl)cc3)CC2)nc2ccc(OC)cc12` belongs 10.3%; to `CC(C)CCNC(=O)c1cc(C(=O)c2cc(F)ccc2O)cn(CCC(C)C)c1=O`, 0.86%.
`CCCCCc1cc(O)c2c(c1)OC(C)(C)CC2C1=CCN(Cc2cccnc2)CC1` (stereo not given) displayed an IFI of 2.16%.
As for `O=C(/C=C/c1ccc(Cl)cc1Cl)NC1CCC(CN2CCC(c3c[nH]c4ccccc34)CC2)CC1` (stereo not given), the IFI was 9.09%.
In the case of `CC(Cc1ccc(OCCCCOc2ccccc2)cc1)NCCCc1nc2ccccc2[nH]1` (stereo not given), the IFI was 33.3%.
`CC(C)CNCc1cccc(-c2ccccc2CN(C(=O)Nc2ccccc2)C2CCN(Cc3ccccc3)CC2)c1` gave an IFI of 7.91%.
Next, `CC[C@H]1CN2CC[C@H]1C[C@H]2[C@H](O)c1cc(-c2ccccc2C)nc2ccc(OC)cc12`: 5.44%; `CC(Cc1ccc(NC(=O)[C@H](C)NCCc2cccc(Cl)c2)cc1)NCCc1cccc(Cl)c1` (stereo not given in full): 9.35%.
`CC[C@H]1CN2CC[C@@H]1C[C@H]2[C@H](O)c1cc(N2CCC(C)CC2)nc2ccc(OC)cc12` yielded an IFI of 5.07%.
`O=C(Nc1cc(C(F)(F)F)cc(C(F)(F)F)c1)c1cc(Cl)ccc1O` returned an IFI of 33.3%.
The compound `CN1CCC(N(C)c2nccc(N3CCN(Cc4cncn4Cc4ccccc4)CC3)n2)CC1` registered an IFI of -0%.
As to `C#CCN1CCC2=C(C1)c1c(O)cc(C(C)CCCc3ccc(F)cc3)cc1OC2(C)C` (stereo not given), the IFI is 1.41%.
For the compound `O=C(C=C1c2ccccc2-c2ccccc21)NC1CCC(CN2CCC(c3c[nH]c4ccccc34)CC2)CC1` (stereo not given), the IFI was 2.99% and 5.15%.
Consider `CCCCCCCSc1ccc(CC(C)NCC(O)c2cccc(Cl)c2)cc1` (stereo not given), for which the IFI is 9.93%.
Compound `O=C(/C=C/c1cccs1)NC1CCC(CN2CCC(c3c[nH]c4ccccc34)CC2)CC1` (stereo not given) came in with an IFI of 6.25%.
Turning to `Cc1[nH]c2cc(Cl)ccc2c1C1=CCN(CCCCC2(C)C(=O)Nc3ccccc32)CC1` (stereo not given), the IFI amounted to 2.38%.
For `COc1ccc(C[C@@H](C)NC[C@H](O)c2cccc(Cl)c2)cc1F`, the IFI is 1.44% and 3.65%.
To `COC(=O)c1ccc(CC(C)NCC(O)c2cccc(Cl)c2Cl)cc1` (stereo not given) belongs 3.62%; to `CC(C)CNCc1cccc(-c2cccc(CN(C(=O)c3cccs3)C3CCN(Cc4ccccc4)CC3)c2)c1`, 9.86%.
To `Oc1cc2c(cc1CN1CCN(Cc3ccccc3)CC1)CCC2` belongs 1.52%; to `CN(C)CCCn1cc(C(=O)OC2CC3CCC(C2)N3C)c2cc(-c3ccccc3)ccc21` (stereo not given), 9.79%.
`CCOc1ccc(-c2nc3cc(-c4nc5cc(N6CCN(C)CC6)ccc5[nH]4)ccc3[nH]2)cc1` came in with an IFI of 4.41%.
